Test results from paper PMC9911399, “Two distinct binding modes provide the RNA-binding protein RbFox with extraordinary sequence specificity”.
Numbering of substitutions follows the chain as printed; changes in the protein carry UniProt numbers. The list shows a part of the results.

T1: RBFOX1 RRM (Homo sapiens, UniProt Q9NWB1 109-208)
T1 sequence: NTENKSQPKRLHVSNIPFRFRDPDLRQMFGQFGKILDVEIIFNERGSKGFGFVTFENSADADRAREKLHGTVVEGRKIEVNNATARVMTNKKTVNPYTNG

B1: GUCAGUC (DNA:RNA)
RNA: GGGAGACCGGAAUUCAGAUUGUCCGUCAGUCUUAAAUCCCGUCGUAGCCACCA
DNA 1: CAATCTGAATTCCGGTCTCCC
DNA 2: TGGTGGCTACGACGGGATT
B2: UCAUGAA (DNA:RNA)
RNA: B1 RNA with G25U, U26C, C27A, A28U, U30A, C31A
DNA 1: CAATCTGAATTCCGGTCTCCC
DNA 2: TGGTGGCTACGACGGGATT
B3: GCUGCAA (DNA:RNA)
RNA: B1 RNA with U26C, C27U, A28G, G29C, U30A, C31A
DNA 1: CAATCTGAATTCCGGTCTCCC
DNA 2: TGGTGGCTACGACGGGATT
B4: GUAGCAU (DNA:RNA)
RNA: B1 RNA with C27A, A28G, G29C, U30A, C31U
DNA 1: CAATCTGAATTCCGGTCTCCC
DNA 2: TGGTGGCTACGACGGGATT
B5: AAACAUA (DNA:RNA)
RNA: B1 RNA with G25A, U26A, C27A, A28C, G29A, C31A
DNA 1: CAATCTGAATTCCGGTCTCCC
DNA 2: TGGTGGCTACGACGGGATT
B6: ACGGUUG (DNA:RNA)
RNA: B1 RNA with G25A, U26C, C27G, A28G, G29U, C31G
DNA 1: CAATCTGAATTCCGGTCTCCC
DNA 2: TGGTGGCTACGACGGGATT
B7: CGGGAUC (DNA:RNA)
RNA: B1 RNA with G25C, U26G, C27G, A28G, G29A
DNA 1: CAATCTGAATTCCGGTCTCCC
DNA 2: TGGTGGCTACGACGGGATT
B8: AGUCAGA (DNA:RNA)
RNA: GGGAGACCGGAAUUCAGAUUGUCCAGUCAGAUUAAAUCCCGUCGUAGCCACCA
DNA 1: CAATCTGAATTCCGGTCTCCC
DNA 2: TGGTGGCTACGACGGGATT
B9: CUAUAAG (DNA:RNA)
RNA: B8 RNA with A25C, G26U, U27A, C28U, G30A, A31G
DNA 1: CAATCTGAATTCCGGTCTCCC
DNA 2: TGGTGGCTACGACGGGATT
B10: GCAAAUA (DNA:RNA)
RNA: B1 RNA with U26C, C27A, G29A, C31A
DNA 1: CAATCTGAATTCCGGTCTCCC
DNA 2: TGGTGGCTACGACGGGATT
B11: GAUCAAU (DNA:RNA)
RNA: B8 RNA with A25G, G26A, G30A, A31U
DNA 1: CAATCTGAATTCCGGTCTCCC
DNA 2: TGGTGGCTACGACGGGATT
B12: GCACGAG (DNA:RNA)
RNA: B1 RNA with U26C, C27A, A28C, U30A, C31G
DNA 1: CAATCTGAATTCCGGTCTCCC
DNA 2: TGGTGGCTACGACGGGATT
B13: GAGUCUC (DNA:RNA)
RNA: B1 RNA with U26A, C27G, A28U, G29C
DNA 1: CAATCTGAATTCCGGTCTCCC
DNA 2: TGGTGGCTACGACGGGATT
B14: GAAUGAG (DNA:RNA)
RNA: B1 RNA with U26A, C27A, A28U, U30A, C31G
DNA 1: CAATCTGAATTCCGGTCTCCC
DNA 2: TGGTGGCTACGACGGGATT
B15: GUGUGGG (DNA:RNA)
RNA: B1 RNA with C27G, A28U, U30G, C31G
DNA 1: CAATCTGAATTCCGGTCTCCC
DNA 2: TGGTGGCTACGACGGGATT
B16: AACCGUG (DNA:RNA)
RNA: B1 RNA with G25A, U26A, A28C, C31G
DNA 1: CAATCTGAATTCCGGTCTCCC
DNA 2: TGGTGGCTACGACGGGATT
B17: GGGGUCC (DNA:RNA)
RNA: B1 RNA with U26G, C27G, A28G, G29U, U30C
DNA 1: CAATCTGAATTCCGGTCTCCC
DNA 2: TGGTGGCTACGACGGGATT
B18: CACUGAA (DNA:RNA)
RNA: B1 RNA with G25C, U26A, A28U, U30A, C31A
DNA 1: CAATCTGAATTCCGGTCTCCC
DNA 2: TGGTGGCTACGACGGGATT
B19: GAAGAAC (DNA:RNA)
RNA: B1 RNA with U26A, C27A, A28G, G29A, U30A
DNA 1: CAATCTGAATTCCGGTCTCCC
DNA 2: TGGTGGCTACGACGGGATT
B20: CAAUCCU (DNA:RNA)
RNA: GGGAGACCGGAAUUCAGAUUGUCCCAAUCCUUUAAAUCCCGUCGUAGCCACCA
DNA 1: CAATCTGAATTCCGGTCTCCC
DNA 2: TGGTGGCTACGACGGGATT
B21: CAUGAUA (DNA:RNA)
RNA: B8 RNA with A25C, G26A, C28G, G30U
DNA 1: CAATCTGAATTCCGGTCTCCC
DNA 2: TGGTGGCTACGACGGGATT
B22: GCGGACU (DNA:RNA)
RNA: B20 RNA with C25G, A26C, A27G, U28G, C29A
DNA 1: CAATCTGAATTCCGGTCTCCC
DNA 2: TGGTGGCTACGACGGGATT
B23: UUCUCCU (DNA:RNA)
RNA: B20 RNA with C25U, A26U, A27C
DNA 1: CAATCTGAATTCCGGTCTCCC
DNA 2: TGGTGGCTACGACGGGATT
B24: UACGCCG (DNA:RNA)
RNA: B20 RNA with C25U, A27C, U28G, U31G
DNA 1: CAATCTGAATTCCGGTCTCCC
DNA 2: TGGTGGCTACGACGGGATT
B25: CACCUGA (DNA:RNA)
RNA: B8 RNA with A25C, G26A, U27C, A29U
DNA 1: CAATCTGAATTCCGGTCTCCC
DNA 2: TGGTGGCTACGACGGGATT
B26: UUUUCUC (DNA:RNA)
RNA: B1 RNA with G25U, C27U, A28U, G29C
DNA 1: CAATCTGAATTCCGGTCTCCC
DNA 2: TGGTGGCTACGACGGGATT
B27: CACGCAG (DNA:RNA)
RNA: B20 RNA with A27C, U28G, C30A, U31G
DNA 1: CAATCTGAATTCCGGTCTCCC
DNA 2: TGGTGGCTACGACGGGATT
B28: GCUGGGG (DNA:RNA)
RNA: B8 RNA with A25G, G26C, C28G, A29G, A31G
DNA 1: CAATCTGAATTCCGGTCTCCC
DNA 2: TGGTGGCTACGACGGGATT
B29: AUGAUCU (DNA:RNA)
RNA: B20 RNA with C25A, A26U, A27G, U28A, C29U
DNA 1: CAATCTGAATTCCGGTCTCCC
DNA 2: TGGTGGCTACGACGGGATT
B30: AAGCUAA (DNA:RNA)
RNA: B8 RNA with G26A, U27G, A29U, G30A
DNA 1: CAATCTGAATTCCGGTCTCCC
DNA 2: TGGTGGCTACGACGGGATT
B31: UGUUGUA (DNA:RNA)
RNA: B8 RNA with A25U, C28U, A29G, G30U
DNA 1: CAATCTGAATTCCGGTCTCCC
DNA 2: TGGTGGCTACGACGGGATT

These binders were tested against T1, RBFOX1 RRM (assay: EMSA; HiTS-Eq, 1 nM pool, 10 min; buffer printed only for the single-RNA assays: 10 mM Tris pH 7.5, 150 mM NaCl, 3.4 mM EDTA, 0.001% NP-40, 30 C). Conditions: tags: His6 N-terminal (pET28a); label: 5' 32P.
Method in brief: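 Purified RbFox RRM, wild type or mutant, was incubated for 10 min in 50 µL with 1 nM of a 5′-radiolabelled RNA pool carrying 7 randomized nucleotides, whose flanks were annealed to DNA oligonucleotides, over a series of increasing protein concentrations. Unbound RNA was resolved on 8% native PAGE, cut out, reverse-transcribed, barcoded by PCR and sequenced on an Illumina HiSeq 2500. Relative association constants were derived from changes in read counts for each RNA species versus the control reaction and normalised to the cognate motif.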

Binder | binding signal
B1 | 0.011 KA relative to UGCAUGU
B2 | 0.00544 KA relative to UGCAUGU
B3 | 0.0197 KA relative to UGCAUGU
B4 | 0.0106 KA relative to UGCAUGU
B5 | 0.00076 KA relative to UGCAUGU
B6 | 0.0233 KA relative to UGCAUGU
B7 | 0.0318 KA relative to UGCAUGU
B8 | 0.0136 KA relative to UGCAUGU
B9 | 0.0115 KA relative to UGCAUGU
B10 | 0.000733 KA relative to UGCAUGU
B11 | 0.00806 KA relative to UGCAUGU
B12 | 0.0362 KA relative to UGCAUGU
B13 | 0.032 KA relative to UGCAUGU
B14 | 0.0255 KA relative to UGCAUGU
B15 | 0.0132 KA relative to UGCAUGU
B16 | 0.00314 KA relative to UGCAUGU

Binder | binding signal
B17 | 0.0259 KA relative to UGCAUGU
B18 | 0.00363 KA relative to UGCAUGU
B19 | 0.00453 KA relative to UGCAUGU
B20 | 0.00198 KA relative to UGCAUGU
B21 | 0.00374 KA relative to UGCAUGU
B22 | 0.00605 KA relative to UGCAUGU
B23 | 0.00904 KA relative to UGCAUGU
B24 | 0.0103 KA relative to UGCAUGU
B25 | 0.00312 KA relative to UGCAUGU
B26 | 0.0162 KA relative to UGCAUGU
B27 | 0.00633 KA relative to UGCAUGU
B28 | 0.019 KA relative to UGCAUGU
B29 | 0.00688 KA relative to UGCAUGU
B30 | 0.00208 KA relative to UGCAUGU
B31 | 0.0214 KA relative to UGCAUGU
